# According to the supplement of paper PMC8728848:
# Some of the results follow.
# B1: InvD YPIII (Yersinia pseudotuberculosis), B1JSC0 (protein)
# chain: MIKYFSFFKKPEPIVGILPNRQSHHILPTHIRRVAWGTLLLQLFIPLSVSFSPAIAAMKASKADTMVSYSSTEPYVLGSGETVAMVAKKYGITVDELKKINIYRTFSRPFTALTTGDEIDIPRKASPFSVDNNKDNRLSVENTLAGHAVAGATALSNGDVAKSGERMVRSAASNEFNNSAQQWLSQFGTARVQLNINDDFHLDGSAADVLIPLYDNEKSILFTQLGARNKDSRNTVNMGAGVRTFQGNWMYGANTFFDNDLTGKNRRIGVGAEAWTDYLKLSANNYFGITDWHQSRDFIDYNERPANGYDLRAEAYLPSYPQLGGKAMYEKYRGDDVALFGKDNRQKNPHAITAGVNYTPIPLVTIGAEHRAGKGGQNDSNINFQLNYRLGETWQSHIDPSAVAASRTLAGSRYDLVERNNHIVLDYQKQNLVRLSLPDSLAGDPFSQLSVTAQVTATHGLERIDWQSAELMAAGGVLKQTSKNGLEITLPEYQMNRTGGNSYILNAIAYDTQGNASSQASMLITVNAQKINIANSTLVAVPINIEANNSDTSVVTLTLKDDNNIPVTGQDVTFLSPLGTLSAMTDSGNGVYTATLTAGTVSGTTAVSSNINGSALDMTPATVTLNGNSGELSITHSMLVAAPVNIEANGSDTSVVTLTLRDSNNNPVTGQTVTFAGTLGTLGAVTEGSSGVYTATLTAGIMVGTSSITASVNSTALGVTPATVTLNGDSGNLSTTNSTLVAAPVNIEANSSDTSVVTLTLRDNNNNPVTGQTVVFTSTLGTLGNVTEQASGVYTATLTAGTVSGVASLSVSVGGNALGVTPATVTLNGDSGNLSTTNSTLVAAPVNIEANSSDTSVVTLTLRDNNNNPVTGQTVNFAGTLGTLGTVSEGSSGVYTTTLTAGTVAGVASLSVNVGGNALGVTPATVTLNGNSGNLSATNSTLVAAPVNIEANSSDTSVVTLTLRDNNNNPVTGQTVAFTSTLGTLGNVTEQASGVYTATLTAGTVSGVASLSVSVNSNALGVTPATVTLNGDSGNLSTTNSTLVAAPVNIEANSSDTSVVTLTLRDNNNNPVTGQTVAFTSTLGTLGNVTEQASGLYTATLTAGTVSGVASLSVNVGGNALGVTPATVTLNGDSGNLSATNSTLVAAPVNIEANSSDTSVVTLTLRDNNNNPVTGQTVAFTSTLGTLGNVTEQASGLYTATLTAGTVSGVASLSVNVGGTALGVTPATVTLNGDSGNLSTTNSTLVAAPVNIEANSSDTSVVTLTLRDNNNNPVTGQTVAFTSTLGTLGNVTEQASGLYTATLTAGTVSGVASLSVSVNSTALGVTPATVTLNGDSGNLSTTNSTLVAAPVNIEANSSDTSVVTLTLRDNNNNPVTGQTVAFTSTLGTLGNVTEQASGVYTATLTAGTVAGVASLSVNVGGNALGVTPATVTLNGDSGNLSTTNSTLVAAPVNIEANSSDTSVVTLTLRDNNNNPVTGQTVAFTSTLGTLGNVTEQASGVYTATLTAGTVSGVASLSVSVGSSALGVTPATVTLNGDSGNLSTTNSTLVAAPVNIEANNSDTSVVTLTLRDNNNNPVTGQTVAFTSTLGTLGNVTEQASGVYTATLTAGTVSGVASLSVSVNSNALGVTPATVTLNGDSGNLSTTNSTLVAAPVNIEANSSDTSVVTLTLRDNNNNPVTGQTVVFTSTLGTLGNVTEQASGLYTATLTAGTVSGVASLSVSVGGNALGVTGNITLAPGALDAARSILAVNKPSINADDRIGSTITFTAQDAQGNAITGLDIAFMTDLENSQIMTLVDHNDGTYTANINGTQTGIANIAVQSSGATIAGLAATMVTITPGAWNTTQATPVMTVALPITTCQSSSGVYKRYYIGIVTHELYDNYGNEISGILTYNLGAGRYTTVTSQNSSVSGSNGLTRRSNSPVSHFILTSDAYTSQAACYAERIANVNVTITVTAITDDFKTSAVNKVFILGTGSN
# Columns and labels:
# Assay in all cases: glycan array binding signal (z-score within array); higher = stronger binding
# Settings in all cases: glycan notation: IUPAC condensed, linker removed
# [1] = biological target: Fuc(a1-3)[Gal3S(b1-4)]GlcNAc
# How it was run: (§1)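 The binding signal is a Z-score computed within each array. Data were drawn from 3228 arrays in the Consortium for Functional Glycomics database, restricted to those with a known protein sequence. Scores were averaged over arrays of the same protein sequence at different concentrations or buffers, and over linkers, and negative values can be taken as non-binding.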
# [2] = biological target: Fuc(a1-3)[Gal3S(b1-4)]GlcNAc6S
# How it was run: as §1
# [3] = biological target: Fuc(a1-3)[GalNAc(b1-4)]GlcNAc
# How it was run: as §1
# [4] = biological target: Fuc(a1-3)[GalNAc(b1-4)]GlcNAc6S
# How it was run: as §1
# Fuc(a1-4)GlcNAc = biological target: Fuc(a1-4)GlcNAc
# How it was run: as §1
# Fuc(b1-3)GlcNAc = biological target: Fuc(b1-3)GlcNAc
# How it was run: as §1
# Gal(a1-2)Gal = biological target: Gal(a1-2)Gal
# How it was run: as §1
# Gal(a1-3)Gal = biological target: Gal(a1-3)Gal
# How it was run: as §1
# Gal(a1-3)Gal(b1-3)GlcNAc = biological target: Gal(a1-3)Gal(b1-3)GlcNAc
# How it was run: as §1
# [5] = biological target: Gal(a1-3)Gal(b1-3)GlcNAc(b1-2)Man
# How it was run: as §1
# [6] = biological target: Gal(a1-3)Gal(b1-3)GlcNAc(b1-2)Man(a1-3)[Gal(a1-3)Gal(b1-3)GlcNAc(b1-2)Man(a1-6)]Man(b1-4)GlcNAc(b1-4)GlcNAc
# How it was run: as §1
# [7] = biological target: Gal(a1-3)Gal(b1-3)GlcNAc(b1-3)GalNAc
# How it was run: as §1
# [8] = biological target: Gal(a1-3)Gal(b1-3)GlcNAc(b1-6)GalNAc
# How it was run: as §1
# [9] = biological target: Gal(a1-3)Gal(b1-3)[Fuc(a1-4)]GlcNAc(b1-2)Man(a1-3)[Gal(a1-3)Gal(b1-3)[Fuc(a1-4)]GlcNAc(b1-2)Man(a1-6)]Man(b1-4)GlcNAc(b1-4)GlcNAc
# How it was run: as §1
# Gal(a1-3)Gal(b1-4)Glc = biological target: Gal(a1-3)Gal(b1-4)Glc
# How it was run: as §1
# Gal(a1-3)Gal(b1-4)GlcNAc = biological target: Gal(a1-3)Gal(b1-4)GlcNAc
# How it was run: as §1
# [10] = biological target: Gal(a1-3)Gal(b1-4)GlcNAc(b1-2)Man
# How it was run: as §1
# [11] = biological target: Gal(a1-3)Gal(b1-4)GlcNAc(b1-2)Man(a1-3)[Gal(a1-3)Gal(b1-4)GlcNAc(b1-2)Man(a1-6)]Man(b1-4)GlcNAc(b1-4)GlcNAc
# How it was run: as §1
# [12] = biological target: Gal(a1-3)Gal(b1-4)GlcNAc(b1-3)GalNAc
# How it was run: as §1
# [13] = biological target: Gal(a1-3)Gal(b1-4)GlcNAc(b1-6)GalNAc
# How it was run: as §1
# [14] = biological target: Gal(a1-3)Gal(b1-4)[Fuc(a1-3)]GlcNAc
# How it was run: as §1
# [15] = biological target: Gal(a1-3)Gal(b1-4)[Fuc(a1-3)]GlcNAc(b1-2)Man(a1-3)[Gal(a1-3)Gal(b1-4)[Fuc(a1-3)]GlcNAc(b1-2)Man(a1-6)]Man(b1-4)GlcNAc(b1-4)GlcNAc
# How it was run: as §1
# Gal(a1-3)GalNAc = biological target: Gal(a1-3)GalNAc
# How it was run: as §1
# [16] = biological target: Gal(a1-3)[Gal(a1-4)]Gal(b1-4)GlcNAc
# How it was run: as §1
# [17] = biological target: Gal(a1-4)Gal(b1-3)GlcNAc(b1-2)Man(a1-3)[Gal(a1-4)Gal(b1-3)GlcNAc(b1-2)Man(a1-6)]Man(b1-4)GlcNAc(b1-4)GlcNAc
# How it was run: as §1
# Gal(a1-4)Gal(b1-4)Glc = biological target: Gal(a1-4)Gal(b1-4)Glc
# How it was run: as §1
# Gal(a1-4)Gal(b1-4)GlcNAc = biological target: Gal(a1-4)Gal(b1-4)GlcNAc
# How it was run: as §1
# [18] = biological target: Gal(a1-4)Gal(b1-4)GlcNAc(b1-2)Man(a1-3)[Gal(a1-4)Gal(b1-4)GlcNAc(b1-2)Man(a1-6)]Man(b1-4)GlcNAc(b1-4)GlcNAc
# How it was run: as §1
# [19] = biological target: Gal(a1-4)Gal(b1-4)GlcNAc(b1-3)Gal(b1-4)Glc
# How it was run: as §1
# Gal(a1-4)GlcNAc = biological target: Gal(a1-4)GlcNAc
# How it was run: as §1
# Gal(a1-6)Glc = biological target: Gal(a1-6)Glc
# How it was run: as §1
# Gal(b1-2)Gal = biological target: Gal(b1-2)Gal
# How it was run: as §1
# Gal(b1-3)Gal = biological target: Gal(b1-3)Gal
# How it was run: as §1
# Gal(b1-3)Gal(b1-4)GlcNAc = biological target: Gal(b1-3)Gal(b1-4)GlcNAc
# How it was run: as §1
# Gal(b1-3)GalNAc = biological target: Gal(b1-3)GalNAc
# How it was run: as §1
# [20] = biological target: Gal(b1-3)GalNAc(a1-3)[Fuc(a1-2)]Gal(b1-4)Glc
# How it was run: as §1
# [21] = biological target: Gal(b1-3)GalNAc(a1-3)[Fuc(a1-2)]Gal(b1-4)GlcNAc
# How it was run: as §1
# Gal(b1-3)GalNAc(b1-3)Gal = biological target: Gal(b1-3)GalNAc(b1-3)Gal
# How it was run: as §1
# [22] = biological target: Gal(b1-3)GalNAc(b1-3)Gal(a1-4)Gal(b1-4)Glc
# How it was run: as §1
# [23] = biological target: Gal(b1-3)GalNAc(b1-4)Gal(b1-4)Glc
# How it was run: as §1
# [24] = biological target: Gal(b1-3)GalNAc(b1-4)[Neu5Ac(a2-3)]Gal(b1-4)Glc
# How it was run: as §1
# Gal(b1-3)GlcNAc = biological target: Gal(b1-3)GlcNAc
# How it was run: as §1
# [25] = biological target: Gal(b1-3)GlcNAc(a1-3)Gal(b1-4)GlcNAc
# How it was run: as §1
# [26] = biological target: Gal(b1-3)GlcNAc(a1-6)Gal(b1-4)GlcNAc
# How it was run: as §1
# Gal(b1-3)GlcNAc(b1-2)Man = biological target: Gal(b1-3)GlcNAc(b1-2)Man
# How it was run: as §1
binder,measurement,setting,value
B1,glycan array binding signal (z-score),[1],-0.158
same,glycan array binding signal (z-score),[2],0.432
same,glycan array binding signal (z-score),[3],0.077
same,glycan array binding signal (z-score),[4],-0.093
same,glycan array binding signal (z-score),Fuc(a1-4)GlcNAc,-0.102
same,glycan array binding signal (z-score),Fuc(b1-3)GlcNAc,-0.26
same,glycan array binding signal (z-score),Gal(a1-2)Gal,-0.108
same,glycan array binding signal (z-score),Gal(a1-3)Gal,-0.281
same,glycan array binding signal (z-score),Gal(a1-3)Gal(b1-3)GlcNAc,-0.172
same,glycan array binding signal (z-score),[5],-0.33
same,glycan array binding signal (z-score),[6],0.213
same,glycan array binding signal (z-score),[7],-0.27
same,glycan array binding signal (z-score),[8],-0.32
same,glycan array binding signal (z-score),[9],-0.046
same,glycan array binding signal (z-score),Gal(a1-3)Gal(b1-4)Glc,0.115
same,glycan array binding signal (z-score),Gal(a1-3)Gal(b1-4)GlcNAc,-0.19
same,glycan array binding signal (z-score),[10],0.03
same,glycan array binding signal (z-score),[11],0.611
same,glycan array binding signal (z-score),[12],0.084
same,glycan array binding signal (z-score),[13],-0.261
same,glycan array binding signal (z-score),[14],0.07
same,glycan array binding signal (z-score),[15],1.03
same,glycan array binding signal (z-score),Gal(a1-3)GalNAc,0.115
same,glycan array binding signal (z-score),[16],-0.213
same,glycan array binding signal (z-score),[17],0.015
same,glycan array binding signal (z-score),Gal(a1-4)Gal(b1-4)Glc,0.157
same,glycan array binding signal (z-score),Gal(a1-4)Gal(b1-4)GlcNAc,-0.281
same,glycan array binding signal (z-score),[18],-0.275
same,glycan array binding signal (z-score),[19],-0.249
same,glycan array binding signal (z-score),Gal(a1-4)GlcNAc,-0.392
same,glycan array binding signal (z-score),Gal(a1-6)Glc,-0.338
same,glycan array binding signal (z-score),Gal(b1-2)Gal,-0.163
same,glycan array binding signal (z-score),Gal(b1-3)Gal,-0.347
same,glycan array binding signal (z-score),Gal(b1-3)Gal(b1-4)GlcNAc,0.093
same,glycan array binding signal (z-score),Gal(b1-3)GalNAc,-0.065
same,glycan array binding signal (z-score),[20],-0.354
same,glycan array binding signal (z-score),[21],-0.102
same,glycan array binding signal (z-score),Gal(b1-3)GalNAc(b1-3)Gal,-0.295
same,glycan array binding signal (z-score),[22],0.309
same,glycan array binding signal (z-score),[23],0.009
same,glycan array binding signal (z-score),[24],0.043
same,glycan array binding signal (z-score),Gal(b1-3)GlcNAc,-0.127
same,glycan array binding signal (z-score),[25],-0.29
same,glycan array binding signal (z-score),[26],0.117
same,glycan array binding signal (z-score),Gal(b1-3)GlcNAc(b1-2)Man,0.159
